Lines with a small IC50 respond at low doses; a fit beyond the top or the lowest dose is shown as a bound at that dose. For AUC the same curve is integrated over the 256-fold range of doses and scaled to a fraction: 1 means no effect, lower means more sensitive. For some assays here: Any top dose called inferred is not printed in the source and was worked back from the curve model.
Assays:
Assay in all cases: Viability of human cancer cell lines after 72 h of drug (GDSC screen)
Etoposide = compound: COc1cc([C@@H]2c3cc4c(cc3[C@@H](O[C@@H]3O[C@@H]5CO[C@@H](C)O[C@H]5[C@H](O)[C@H]3O)[C@H]3COC(=O)[C@H]23)OCO4)cc(OC)c1O [Etoposide]; details: top dose 16 µM
Procedure: (§1)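 Human cancer cell lines in 384-well plates, medium with 10% serum, drug for 72 h over a 256-fold dose range (nine 2-fold or five 4-fold steps up to the top dose). Adherent lines were fixed and stained with the nucleic acid dye Syto60, suspension lines read with resazurin; signal relative to control wells, capped at 0 and 100%. One two-parameter sigmoid per drug and line, fitted in a mixed model over all curves with the slope shared within a line.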

Bexarotene = compound: C=C(c1ccc(C(=O)O)cc1)c1cc2c(cc1C)C(C)(C)CCC2(C)C [Bexarotene]; details: top dose 8 µM
Procedure: as §1

NPK76-II-72-1 = compound: COc1cc(C(=O)NC2CCN(C)CC2)ccc1Nc1ncc2c(n1)N(C1CCCC1)C(C)CC(=O)N2C [NPK76-II-72-1]; details: top dose 10.24 µM; top dose inferred
Procedure: as §1

GSK-650394 = compound: O=C(O)c1ccc(-c2c[nH]c3ncc(-c4ccccc4)cc23)cc1C1CCCC1 [GSK-650394]; details: top dose 16 µM; top dose inferred
Procedure: as §1

AZD7762 = compound: NC(=O)Nc1cc(-c2cccc(F)c2)sc1C(=O)N[C@H]1CCCNC1 [AZD7762]; details: top dose 2 µM
Procedure: as §1

BMS-345541 = compound: Cc1ccc2nc(NCCN)c3ncc(C)n3c2c1 [BMS-345541]; details: top dose 16 µM
Procedure: as §1

XAV 939 = compound: Oc1nc(-c2ccc(C(F)(F)F)cc2)nc2c1CSCC2 [XAV 939]; details: top dose 5 µM; top dose inferred
Procedure: as §1

Cell Line	AUC (Etoposide)	IC50 (Etoposide)	AUC (Bexarotene)	IC50 (Bexarotene)	AUC (NPK76-II-72-1)	IC50 (NPK76-II-72-1)	AUC (GSK-650394)	IC50 (GSK-650394)	AUC (AZD7762)	IC50 (AZD7762)	AUC (BMS-345541)	IC50 (BMS-345541)	AUC (XAV 939)	IC50 (XAV 939)
MHH-NB-11 (neuroblastoma, adherent)	0.483	0.895 µM	0.985	> 8 µM	0.789	5.02 µM	0.982	> 16 µM	0.698	0.479 µM	0.802	8.76 µM	–	–
MKN28 (stomach, adherent)	0.657	2.75 µM	0.936	> 8 µM	0.973	> 10.2 µM	0.82	9.46 µM	0.824	1.22 µM	0.925	> 16 µM	–	–
MY-M12 (leukaemia, suspension)	0.542	1.33 µM	0.941	> 8 µM	0.473	0.537 µM	0.803	9.21 µM	0.648	0.341 µM	0.628	2.36 µM	–	–
NB6 (neuroblastoma, adherent)	0.902	> 16 µM	0.898	> 8 µM	0.848	> 10.2 µM	0.967	> 16 µM	0.809	1.35 µM	0.878	> 16 µM	–	–
NB17 (neuroblastoma, adherent)	0.6	1.97 µM	–	–	0.95	> 10.2 µM	–	–	0.625	0.292 µM	0.975	> 16 µM	0.98	> 5 µM
NB69 (neuroblastoma, adherent)	0.076	< 0.0625 µM	0.988	> 8 µM	0.9	> 10.2 µM	0.942	> 16 µM	0.768	0.665 µM	0.841	9.31 µM	–	–
NCI-H64 (small cell lung carcinoma, suspension)	0.742	3.93 µM	0.986	> 8 µM	0.869	5.62 µM	0.966	> 16 µM	0.658	0.303 µM	0.864	8.48 µM	–	–
NCI-H510A (small cell lung carcinoma, semi-adherent)	0.796	6.79 µM	0.989	> 8 µM	0.661	1.72 µM	0.887	15.4 µM	0.921	> 2 µM	0.978	> 16 µM	–	–
NCI-H630 (large intestine, adherent)	0.815	9.59 µM	–	–	0.967	> 10.2 µM	–	–	0.839	1.52 µM	0.917	> 16 µM	0.987	> 5 µM
NCI-H1734 (lung adenocarcinoma, adherent)	0.595	1.87 µM	0.985	> 8 µM	0.973	> 10.2 µM	0.919	> 16 µM	0.477	0.107 µM	0.909	> 16 µM	–	–
NCI-H1963 (small cell lung carcinoma, suspension)	0.795	6.38 µM	0.991	> 8 µM	0.991	> 10.2 µM	0.966	> 16 µM	0.799	0.819 µM	–	–	–	–
NCI-H2052 (mesothelioma, adherent)	0.788	9.26 µM	0.974	> 8 µM	0.969	> 10.2 µM	0.945	> 16 µM	0.902	> 2 µM	0.964	> 16 µM	–	–
OVKATE (ovary, adherent)	0.979	> 16 µM	–	–	0.887	> 10.2 µM	0.977	> 16 µM	0.733	0.923 µM	0.934	> 16 µM	0.977	> 5 µM
PA-1 (ovary, adherent)	0.15	0.12 µM	0.945	> 8 µM	0.767	3.03 µM	0.704	3.24 µM	0.874	1.26 µM	0.709	3.33 µM	–	–
RL95-2 (endometrium, adherent)	0.576	1.61 µM	–	–	0.907	> 10.2 µM	–	–	0.883	> 2 µM	0.948	> 16 µM	0.95	> 5 µM
SU-DHL-1 (anaplastic large cell lymphoma, suspension)	0.507	1.04 µM	0.997	> 8 µM	0.959	> 10.2 µM	0.997	> 16 µM	–	–	0.895	9.91 µM	–	–
SUP-B15 (lymphoblastic leukaemia, suspension)	0.166	0.102 µM	0.916	> 8 µM	0.616	1.31 µM	0.97	> 16 µM	0.598	0.23 µM	0.674	2.99 µM	–	–
SW48 (large intestine, adherent)	0.453	0.744 µM	0.934	> 8 µM	0.912	> 10.2 µM	–	–	0.789	0.879 µM	0.862	13.6 µM	0.945	> 5 µM
TALL-1 (T-cell lymphoblastic leukaemia, suspension)	0.986	> 16 µM	0.983	> 8 µM	0.878	9.52 µM	0.984	> 16 µM	–	–	0.801	7.36 µM	–	–
TE-441-T (rhabdomyosarcoma, adherent)	0.866	13.3 µM	0.989	> 8 µM	0.979	> 10.2 µM	0.967	> 16 µM	–	–	0.844	10.8 µM	–	–
UACC-812 (breast, adherent)	0.931	> 16 µM	0.991	> 8 µM	0.983	> 10.2 µM	0.991	> 16 µM	–	–	0.949	> 16 µM	–	–
VMRC-RCW (kidney, adherent)	0.676	2.98 µM	0.897	> 8 µM	0.978	> 10.2 µM	0.799	7.06 µM	0.82	1.04 µM	0.919	> 16 µM	–	–
